Hit rate of the full screen: of about 55,000 compounds, about 340 (0.62%) were called active. Inconclusive means that the source gave no clear call. Such entries were picked first, then a sample of the others. The call rests on the fitted dose curve; in most records, active means well fitted cell-killing curve with a large enough effect; inconclusive means small, poorly fitted or top-dose-only effect; inactive means no such curve, though single readings can be large or run the other way. Potencies of inconclusive entries are doubtful fits and often do not repeat.
Assay: qHTS Screen for Compounds that Selectively Target Cancer Cells with p53 Mutations: Cytotoxicity of p53 Null Cells at the Permissive Temperature; further: nearly all actives have a fitted effect of over 55% in size
Settings: H1299-neo p53 null cells, ATP luminescence, 24 h, 32C; series mostly up to 46.1 µM
Procedure, shortened: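 H1299-neo, 600 cells/well; overnight 37C; cpd up to 46 uM, 24 h at 32C; ATPlite luminescence after 20 min RT; normalized to DMSO (0%) and tamoxifen 100 uM (100% kill); Hill-fit AC50.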
Potency means the concentration at half of the fitted maximal effect; tags describe the fitted curve by direction and shape.

| Structure (SMILES) | Potency |
| --- | --- |
| Clc1ccc(-n2ncc3c(NC4CCCC4)ncnc32)cc1 | inconclusive: 15.8 µM [cytotoxic, single point] |
| Cc1ccc(-n2ncc3c(NC4CCCCCC4)ncnc32)cc1 | inconclusive: 10 µM [cytotoxic, partial curve] |
| Cc1cc(C)c(-c2n[nH]c3c2C(c2ccccc2F)N(Cc2ccco2)C3=O)c(O)c1 (stereo not given) | inactive |
| COc1ccc(-c2cc(C(F)(F)F)nc(SCCC(=O)Nc3ccc(OC)c(OC)c3)n2)cc1 | inactive |
| O=C(CN1C(=O)COc2ccc(S(=O)(=O)NC3CCCC3)cc21)NCc1ccc(Cl)cc1 | inactive |
| Cc1cc(-c2ccc(C)c(S(=O)(=O)Nc3ccccc3C(F)(F)F)c2)on1 | inconclusive: 25.1 µM [cytotoxic, single point] |
| COc1ccc(NC(=O)CCCn2c(=O)c3cccn3c3ccccc32)c(OC)c1 | inconclusive: 10 µM [cytotoxic, partial curve] |
| COc1cccc(CNC(=O)CSc2ncc3c(n2)-c2cc(Cl)ccc2N(C)S3(=O)=O)c1 | inactive |
| Cc1cccc(Cn2ccn(Cc3ccc(Cl)cc3)c(=O)c2=O)c1 | inconclusive: 25.1 µM [cytotoxic, single point] |
| COc1ccc(N2CCN(C(=O)CSc3c4c(nc5ccc(Cl)cc35)CCCC4)CC2)cc1 | inconclusive: 28.2 µM [cytotoxic, single point] |
| Cc1cccc(N2CCN(S(=O)(=O)c3ccc4c(c3)C(C(C)C)C(=O)N4)CC2)c1C (stereo not given) | inconclusive: 25.1 µM [cytotoxic, single point] |
| Cc1ccc2scc(N3CCC(C)CC3)c(=O)c2c1 | inconclusive: 10 µM [cytotoxic, partial curve] |
| Cc1[nH]c2ccccc2c1C(c1ccccc1)c1ccc(Cl)s1 (stereo not given) | inconclusive: 7.08 µM [cytotoxic, full curve, poor fit] |
| Cc1ccc(S(=O)(=O)c2cn(CC(=O)Nc3ccccc3C)c3cc4c(cc3c2=O)OCO4)cc1 | inconclusive: 3.16 µM [cytotoxic, single point] |
| Cc1c(CCNC(=O)c2ccc(Br)o2)sc2nc(-c3ccc(Cl)cc3)nn12 | inconclusive: 31.6 µM [cytotoxic, single point] |
| COc1cccc(NC(=O)c2oc3ccccc3c2NC(=O)c2ccc(F)c(F)c2)c1 | inconclusive: 5.62 µM [cytotoxic, single point] |
| Cc1ccc(-c2onc(C)c2C)cc1S(=O)(=O)N1CCOc2ccc(Cl)cc21 | inactive |
| CCOc1ccc(C(=O)Nc2cc(-c3nc4cc(OC)ccc4o3)ccc2C)cc1[N+](=O)[O-] | inconclusive: 31.6 µM [cytotoxic, single point] |
| CCNC(=O)c1ccc2c(c1)nc1n2CCCCC1 | inconclusive: 12.6 µM [cytotoxic, partial curve] |
| CCc1cccc(NC(=O)c2nnn(Cc3ccc(SC)cc3)c2N)c1 | inactive |
| COc1cccc(N2C(=O)C(CC(=O)Nc3ccc(Cl)cc3)N(Cc3ccc4c(c3)OCO4)C2=O)c1 (stereo not given) | inconclusive: 35.5 µM [cytotoxic, single point] |
| CCc1nn(CC(=O)NC(C)CCc2ccccc2)c(=O)c2cc3cc(F)ccc3n12 (stereo not given) | inconclusive: 0.0708 µM [cytotoxic, full curve, poor fit] |

| Structure (SMILES) | Potency |
| --- | --- |
| Cc1nc2ccccc2n1CCc1nc2c3ccccc3nc(SCc3cccc(F)c3)n2n1 | inconclusive: 15.8 µM [cytotoxic, single point] |
| COc1ccc(C(=O)Nc2cc(C(F)(F)F)ccc2N2CCN(c3ccccc3)CC2)cc1OC | inconclusive: 31.6 µM [cytotoxic, single point] |
| Cc1cc(C)cc(NC(=O)NCCn2nnc3cc(S(=O)(=O)N(C)C)ccc32)c1 | inconclusive: 5.62 µM [cytotoxic, single point] |
| COc1ccc(C(=O)NCCc2sc(-c3cccc(F)c3)nc2C)cc1 | inconclusive: 0.501 µM [cytotoxic, full curve] |
| Cc1ccnc(NC(=O)/C=C/c2cccs2)c1 | active: 10 µM |
| O=C(Cn1nc2c(cc1=O)CCCC2)NCc1ccccc1Cl | inconclusive: 4.47 µM [cytotoxic, single point] |
| CCOc1ccccc1CNC(=O)c1cccc(NC(=O)c2nsc3ccccc23)c1 | inconclusive: 22.4 µM [cytotoxic, single point] |
| CCCCN(C)c1ncnc2c1cnn2-c1cccc(Cl)c1 | inconclusive: 12.6 µM [cytotoxic, partial curve] |
| Cc1ccc(NC2=CC(=O)C(=O)c3ccccc32)cc1 | active: 3.98 µM |
| CCOc1ccc(-c2nc3ccccc3c(=O)o2)cc1 | active: 3.98 µM |
| Cc1ccc(Nc2nnc(SCC(=O)Nc3cccc(S(=O)(=O)N4CCCCC4)c3)s2)cc1 | inconclusive: 7.08 µM [cytotoxic, partial curve] |
| CN(C)CCCNC(=O)C(=O)NCC(c1ccc2c(c1)OCO2)N1CCOCC1 (stereo not given) | inconclusive: 0.708 µM [cytotoxic, full curve] |
| Cn1c(=O)c2cc(C(=O)NC3CCCCCC3)sc2c2ccccc21 | inconclusive: 25.1 µM [cytotoxic, single point] |
| Cc1ccc(NC(=O)Nc2nnc(SCC(=O)N3CCCCC3)s2)cc1 | inconclusive: 15.8 µM [cytotoxic, single point] |
| CN1CCN(C(CNC(=O)C(=O)Nc2ccc(Cl)cc2)c2cccnc2)CC1 (stereo not given) | inactive |
| CCOc1ccccc1NC(=O)Cn1c(=O)n(CC(=O)NCc2ccccc2Cl)c(=O)c2sccc21 | inactive |
| COc1ccc(OCC(=O)Nc2ccc(-c3nc4cc(Cl)ccc4o3)cc2)cc1 | inactive |
| CCOc1ccc(-n2c(SCc3ccccc3)nc3c([nH]c4ccccc43)c2=O)cc1 | inconclusive: 1.78 µM [cytotoxic, partial curve] |
| Cc1cccc2c(=O)cc(CSc3ccccc3NC(=O)C(C)C)[nH]c12 | inactive |
| COC(=O)C1=C(CS(=O)(=O)c2ccc(C)cc2C)NC(=O)NC1c1ccc(C)cc1 (stereo not given) | inconclusive: 3.55 µM [cytotoxic, single point] |
| OC(CNCC1CCCO1)Cn1c2ccc(Br)cc2c2cc(Br)ccc21 (stereo not given) | inconclusive: 25.1 µM [cytotoxic, single point] |
| Cc1ccc(NC(=O)c2ccc(NC(=O)N3CCSc4ncccc43)cc2)c(Cl)c1 | inconclusive: 15.8 µM [cytotoxic, partial curve] |

| Structure (SMILES) | Potency |
| --- | --- |
| Cc1ccc(Sc2ccc(N3CCC(C(=O)Nc4cc(C)cc(C)c4)CC3)nn2)cc1 | inconclusive: 20 µM [cytotoxic, single point] |
| Fc1ccccc1Nc1c2c(nc3ccccc13)CCC2 | inactive |
| O=c1c2sc3ccccc3c2n(Cc2ccccc2F)c(=O)n1Cc1ccccc1 | inconclusive: 3.98 µM [cytotoxic, single point] |
| COc1ccc(-c2nc3cc(NC(=O)Cc4ccc(Cl)cc4)ccc3o2)cc1OC | inconclusive: 12.6 µM [cytotoxic, partial curve] |
| CCOC(=O)c1ccc(NC(=O)Cn2nc(SC)c(S(=O)(=O)c3ccc(Cl)cc3)c2N)cc1 | inactive |
| CCc1ccc(CNC(=O)c2ccc3nc(SCc4ccc(F)cc4)n(C)c3c2)cc1 | inactive |
| CCOc1ccc(-c2cnc(NCc3ccc(C(F)(F)F)cc3)n2C)cc1 | inconclusive: 31.6 µM [cytotoxic, single point] |
| Cc1cccc(OCCCCn2c(C3CC(=O)N(c4ccccc4Cl)C3)nc3ccccc32)c1 (stereo not given) | inconclusive: 15.8 µM [cytotoxic, single point] |
| COc1ccc(Nc2c3c(nc4ccc(NC(=O)/C=C/c5cc(OC)c(OC)c(OC)c5)cc24)CCCC3)cc1OC | active: 12.6 µM |
| Cc1ccc(-c2cn(-c3cccc(Cl)c3)c(S(=O)(=O)CC(=O)Nc3ccccc3F)n2)cc1 | inactive |
| CC(C)c1ccc(NS(=O)(=O)c2ccc3nc(-c4ccccc4)[nH]c3c2)cc1 | inconclusive: 22.4 µM [cytotoxic, single point] |
| COc1ccc(OCCSc2nnc3c(Cl)cc(Cl)cn23)cc1 | inactive |
| O=C(Nc1ccc2c(c1)CCCN2C(=O)c1cccs1)c1ccccc1 | inconclusive: 35.5 µM [cytotoxic, single point] |
| O=C1c2ccccc2C(=O)N1c1cccc(-c2csc(Nc3ccc4c(c3)OCO4)n2)c1 | inconclusive: 2.82 µM [cytotoxic, full curve, poor fit] |
| COc1ccc(NC(=O)Cn2cc(C(=O)c3ccccc3)c(=O)c3cc(OC)ccc32)c(OC)c1 | inconclusive: 3.55 µM [cytotoxic, single point] |
| CCc1ccc2ncc(C(=O)c3ccc(C)c(C)c3)c(N3CCC(C(N)=O)CC3)c2c1 | inactive |
| COc1cc(OC)c(-c2cc(C(=O)NCc3ccc(F)cc3)c3c(-c4ccccc4)[nH]nc3n2)cc1OC | inconclusive: 31.6 µM [cytotoxic, single point] |
| CCc1ccc(-n2c(-c3ccccc3)c(C)n3c4c(=O)n(C)c(=O)n(C)c4nc23)cc1 | inconclusive: 31.6 µM [cytotoxic, single point] |
| N#C/C(=C/c1ccc(N2CCOCC2)o1)c1nc2ccccc2[nH]1 | inconclusive: 15.8 µM [cytotoxic, single point] |
| CCC(CC)C(=O)Nc1ccc(-c2cn3cccnc3n2)cc1 | inconclusive: 5.62 µM [cytotoxic, single point] |
| CC(C)CS(=O)(=O)c1oc(-c2ccc(F)cc2)nc1S(=O)(=O)c1ccccc1 | inconclusive: 28.2 µM [cytotoxic, single point] |
